In the supplement of paper PMC3694890:
± gives the uncertainty stated by the source. The list shows a part of the results. Phosphotyrosine is written y.

Molecular target: GRB2 (endogenous complexes from cell lysate), P62993
Assay: GRB2 complex binding differential signal (pY peptide minus Ala control peptide) (fluorescence intensity units); higher = stronger GRB2 complex binding
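Note: phosphopeptide probes on the chip at 1–4 µM, lysate proteins bound in 20 mM Tris pH 7.0 buffer with 140 mM NaCl, 1% Triton X-100 and 5% glycerol.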

## yDSTWE [PDGFRB_589/A1]
MCF7
  GRB2 complex binding differential signal: 8.45 ± 160
MCF10A
  GRB2 complex binding differential signal: 34.8 ± 120
MDA-MB-231
  GRB2 complex binding differential signal: 134 ± 260
T47D
  GRB2 complex binding differential signal: 180 ± 1300

## yGDLVD [PDGFRB_686/A1]
MCF7
  GRB2 complex binding differential signal: 77.4 ± 590
MCF10A
  GRB2 complex binding differential signal: -348 ± 650
MDA-MB-231
  GRB2 complex binding differential signal: 333 ± 250
T47D
  GRB2 complex binding differential signal: 434 ± 1000

## yLHRNK [PDGFRB_692/A1]
MCF7
  GRB2 complex binding differential signal: 235 ± 130
MCF10A
  GRB2 complex binding differential signal: 195 ± 320
MDA-MB-231
  GRB2 complex binding differential signal: 481 ± 320
T47D
  GRB2 complex binding differential signal: 240 ± 960

## yRQGRI [AXL_703/A1]
MCF7
  GRB2 complex binding differential signal: 713 ± 430
MCF10A
  GRB2 complex binding differential signal: 720 ± 340
MDA-MB-231
  GRB2 complex binding differential signal: 319 ± 270
T47D
  GRB2 complex binding differential signal: 282 ± 1600

## ySNALP [PDGFRB_716/A1]
MCF7
  GRB2 complex binding differential signal: 15900 ± 2100
MCF10A
  GRB2 complex binding differential signal: 9840 ± 2100
MDA-MB-231
  GRB2 complex binding differential signal: 4440 ± 1000
T47D
  GRB2 complex binding differential signal: 13800 ± 3300

## yMDMSK [PDGFRB_740/A1]
MCF7
  GRB2 complex binding differential signal: 666 ± 230
MCF10A
  GRB2 complex binding differential signal: 800 ± 230
MDA-MB-231
  GRB2 complex binding differential signal: 916 ± 330
T47D
  GRB2 complex binding differential signal: 1190 ± 1600

## yVPMLD [PDGFRB_751/A1]
MCF7
  GRB2 complex binding differential signal: -2190 ± 1700
MCF10A
  GRB2 complex binding differential signal: 319 ± 260
MDA-MB-231
  GRB2 complex binding differential signal: 1010 ± 490
T47D
  GRB2 complex binding differential signal: 1310 ± 1500

## yADIES [PDGFRB_763/A1]
MCF7
  GRB2 complex binding differential signal: 225 ± 160
MCF10A
  GRB2 complex binding differential signal: 126 ± 170
MDA-MB-231
  GRB2 complex binding differential signal: 457 ± 380
T47D
  GRB2 complex binding differential signal: 403 ± 1200

## yMAPYD [PDGFRB_771/A1]
MCF7
  GRB2 complex binding differential signal: 3830 ± 1600
MCF10A
  GRB2 complex binding differential signal: 1360 ± 530
MDA-MB-231
  GRB2 complex binding differential signal: 1590 ± 590
T47D
  GRB2 complex binding differential signal: 1900 ± 1400

## yDNYVP [PDGFRB_775/A1]
MCF7
  GRB2 complex binding differential signal: 785 ± 240
MCF10A
  GRB2 complex binding differential signal: 941 ± 300
MDA-MB-231
  GRB2 complex binding differential signal: 1290 ± 530
T47D
  GRB2 complex binding differential signal: 3470 ± 1200

## yVPSAP [PDGFRB_778/A1]
MCF7
  GRB2 complex binding differential signal: 1280 ± 590
MCF10A
  GRB2 complex binding differential signal: 1650 ± 780
MDA-MB-231
  GRB2 complex binding differential signal: 957 ± 420
T47D
  GRB2 complex binding differential signal: 1750 ± 3400

## yISKGS [PDGFRB_857/A1]
MCF7
  GRB2 complex binding differential signal: 1170 ± 820
MCF10A
  GRB2 complex binding differential signal: 2330 ± 500
MDA-MB-231
  GRB2 complex binding differential signal: 1260 ± 410
T47D
  GRB2 complex binding differential signal: 1930 ± 1200

## yEIMQK [PDGFRB_934/A1]
MCF7
  GRB2 complex binding differential signal: 991 ± 500
MCF10A
  GRB2 complex binding differential signal: 906 ± 180
MDA-MB-231
  GRB2 complex binding differential signal: 1140 ± 520
T47D
  GRB2 complex binding differential signal: 1330 ± 2100

## yQQVDE [PDGFRB_970/A1]
MCF7
  GRB2 complex binding differential signal: 1550 ± 460
MCF10A
  GRB2 complex binding differential signal: 1310 ± 200
MDA-MB-231
  GRB2 complex binding differential signal: 311 ± 260
T47D
  GRB2 complex binding differential signal: 251 ± 1300

## yALMSR [AXL_779/A1]
MCF7
  GRB2 complex binding differential signal: 1730 ± 560
MCF10A
  GRB2 complex binding differential signal: 533 ± 200
MDA-MB-231
  GRB2 complex binding differential signal: 436 ± 390
T47D
  GRB2 complex binding differential signal: 1060 ± 900

## ySLEQR [PKN2_273/A1]
MCF7
  GRB2 complex binding differential signal: 1920 ± 260
MCF10A
  GRB2 complex binding differential signal: 600 ± 700
MDA-MB-231
  GRB2 complex binding differential signal: 478 ± 280
T47D
  GRB2 complex binding differential signal: 971 ± 1200
